Measured values as given in the supplement of paper PMC3334620.
Over roughly 33,000 sequences, “E-score (-0.5 to 0.5)” has its median near -0.035; the highest 2% begin near 0.34. The list shows a part of the results.

target: T1, Mot3 (UniProt P54785); experiment: PBM E-score (8-mer binding enrichment) (E-score (-0.5 to 0.5)); higher = stronger / more preferred TF binding; most listed sequences are background and not binding sites; conditions: protein concentration: 200 nM; construct: GST-full length
T1 sequence: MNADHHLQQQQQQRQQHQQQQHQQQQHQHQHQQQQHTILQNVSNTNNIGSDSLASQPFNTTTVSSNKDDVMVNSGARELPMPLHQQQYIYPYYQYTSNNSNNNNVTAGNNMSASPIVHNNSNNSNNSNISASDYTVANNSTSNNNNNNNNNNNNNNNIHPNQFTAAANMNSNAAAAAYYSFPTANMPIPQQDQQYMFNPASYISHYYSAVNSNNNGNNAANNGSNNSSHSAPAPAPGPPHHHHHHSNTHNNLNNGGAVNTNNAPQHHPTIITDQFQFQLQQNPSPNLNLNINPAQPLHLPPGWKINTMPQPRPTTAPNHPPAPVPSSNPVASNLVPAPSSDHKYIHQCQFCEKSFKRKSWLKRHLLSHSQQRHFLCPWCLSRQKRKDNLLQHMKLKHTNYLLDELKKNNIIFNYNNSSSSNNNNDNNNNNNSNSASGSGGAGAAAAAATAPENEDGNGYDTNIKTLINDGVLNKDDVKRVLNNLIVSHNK
Method in brief: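 Bound GST-tagged yeast transcription factors, applied at about 100-200 nM to double-stranded universal all-10-mer Agilent arrays, were detected with fluorescent anti-GST. Scans were normalised with masliner. A modified Wilcoxon-Mann-Whitney statistic, the E-score, was assigned to each ungapped eight-base word pooled with its reverse complement by the Universal PBM Analysis Suite.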

| Sequence | PBM E-score |
| --- | --- |
| CCAAGTGC | -0.181 |
| ACACGCCC | 0.29 |
| GGAATCAA | 0.0785 |
| GACATGGC | 0.0808 |
| CATACCCG | -0.0557 |
| ACCTACAC | 0.258 |
| GACCGGCA | -0.116 |
| GTGATGAA | -0.0476 |
| GTAATGCA | 0.237 |
| TCCCAAGA | -0.256 |
| ACAAACAT | 0.265 |
| AAAAGCTG | -0.143 |
| AATAATGT | 0.163 |
| CACATGAC | 0.177 |
| CGAACGGA | -0.166 |
| ATGTCTTA | 0.189 |
| CCAGCTAA | -0.0514 |
| ACACGGGT | 0.348 |
| ATTCAGTA | 0.089 |
| CCAGAGTC | -0.224 |
| GTAACGCA | 0.188 |
| AAGGCATG | 0.303 |
| AGGCGTAA | 0.1 |
| CGCATACC | -0.0695 |

| Sequence | PBM E-score |
| --- | --- |
| ACTAGCAT | 0.0119 |
| CAGACGGA | -0.223 |
| ACATATTC | 0.203 |
| AAACCTGT | 0.0357 |
| ATCCTCAT | -0.149 |
| GGTCCGCA | -0.143 |
| AGGCAGTC | -0.0291 |
| CTAATAAG | 0.0833 |
| ACCTGCAT | 0.207 |
| CGACACGA | 0.239 |
| AACGAAGC | -0.188 |
| CTCAATTA | 0.111 |
| CCTTCTCC | 0.0145 |
| CCAACGTC | -0.172 |
| CTAGTTAC | 0.0149 |
| AACTTGCG | 0.0893 |
| ATCAGACA | 0.0849 |
| AGGTTGAC | -0.0563 |
| GTACATTA | 0.267 |
| AAGGATTA | 0.249 |
| GGCCCCAC | -0.308 |
| CTGACTTC | -0.251 |
| CACGCTGG | -0.0203 |
| CAAGTACA | 0.214 |

| Sequence | PBM E-score |
| --- | --- |
| AAAGTTTC | -0.0741 |
| GAGTCGCA | -0.351 |
| GGCAATGA | 0.246 |
| CAGGTGAG | -0.291 |
| AATCGGCC | -0.319 |
| CCGATCCA | -0.00525 |
| AACGGGCT | -0.223 |
| GGTGATTA | -0.174 |
| ACCCTCCA | -0.157 |
| CATCAGGG | -0.0517 |
| AGCAACCG | -0.217 |
| GTCCCGTA | -0.0776 |
| ATCCACGG | -0.0193 |
| CCGTATCC | -0.173 |
| CATGTGCC | 0.31 |
| AATTTAAC | 0.229 |
| CACACTAC | 0.182 |
| CAGGGGCA | 0.0463 |
| CTCCTTCA | 0.0358 |
| AGGGATAT | -0.149 |
| ATAAACAA | 0.196 |
| CTCATGAA | -0.0903 |
| AGTTTGTG | -0.0641 |
| GCGTAACA | 0.196 |

| Sequence | PBM E-score |
| --- | --- |
| AATTTGCA | -0.0423 |
| GTCAAACA | 0.155 |
| CCCATGGC | -0.281 |
| GTAAGGAA | 0.366 |
| CGAGCGAG | 0.126 |
| ATTATTCG | 0.174 |
| CGTAATAC | 0.3 |
| CCGCTGGA | -0.189 |
| ACCCCGTG | -0.103 |
| TTAAAAAA | 0.186 |
| GTAGCATA | -0.0576 |
| ACAATTTA | 0.134 |
| TCACACAA | 0.0924 |
| GAATCTGA | -0.0173 |
| AACGCACG | 0.219 |
| CTTGCGGC | -0.158 |
| CTCCAGGC | 0.157 |
| CTTCTGCA | -0.0791 |
| GCGAACGA | -0.109 |
| ATGCGACA | 0.0177 |
| ACACCCTC | -0.114 |
| GGCCGGCC | -0.38 |
